We go through five molecules from article PMC10411568.

These are yes or no findings as the source states them, for the method shown. For some assays here: Binding seen in cells or lysates may run through a third protein. Some results given as binding are weak or reduced against the parent protein; the word gives no strength. For some assays here: Where a sequence is shown, tags or fusion partners need not be part of it.

Test [1] deals with T1, Full-length human RAP1 fused to the Gal4p DNA binding domain (pDBLeu/RAP1) (human) (UniProt Q9NYB0).
T1 sequence: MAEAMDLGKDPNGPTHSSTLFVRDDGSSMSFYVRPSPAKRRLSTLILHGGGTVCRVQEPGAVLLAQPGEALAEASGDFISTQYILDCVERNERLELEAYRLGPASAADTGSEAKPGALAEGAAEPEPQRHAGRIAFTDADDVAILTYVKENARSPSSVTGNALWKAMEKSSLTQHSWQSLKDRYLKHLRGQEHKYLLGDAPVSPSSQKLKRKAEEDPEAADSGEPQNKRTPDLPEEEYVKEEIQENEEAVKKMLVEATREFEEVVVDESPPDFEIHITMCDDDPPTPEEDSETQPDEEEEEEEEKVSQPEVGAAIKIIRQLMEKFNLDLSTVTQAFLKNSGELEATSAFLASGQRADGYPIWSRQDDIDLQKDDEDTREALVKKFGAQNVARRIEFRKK
As to the kind of experiment: two-hybrid; ProQuest Two-Hybrid System, MaV203 cells; GAL4DBD-RAP1 bait against a human fetal brain cDNA library in pPC86; selection on SC-leu-trp-his with 3AT and blue colour with X-gal; library plasmids retested with the bait.

For test [2], the target named is T2, GST-RAP1 (human) (UniProt Q9NYB0).
T2 sequence: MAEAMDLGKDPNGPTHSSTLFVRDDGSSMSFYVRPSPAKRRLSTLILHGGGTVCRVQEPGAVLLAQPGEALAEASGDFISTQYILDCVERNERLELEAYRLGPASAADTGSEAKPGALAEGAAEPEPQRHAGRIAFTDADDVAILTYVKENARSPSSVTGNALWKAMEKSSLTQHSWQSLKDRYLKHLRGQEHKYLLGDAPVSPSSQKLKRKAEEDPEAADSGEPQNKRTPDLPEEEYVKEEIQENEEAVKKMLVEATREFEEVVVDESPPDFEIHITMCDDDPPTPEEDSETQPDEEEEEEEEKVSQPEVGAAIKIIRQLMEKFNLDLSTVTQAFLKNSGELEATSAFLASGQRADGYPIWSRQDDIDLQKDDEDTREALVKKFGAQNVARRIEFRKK
As to the kind of experiment: pull-down; Fig. 2b and Fig. 2c lanes 1, 4, 6: GST- and His6-tagged proteins expressed together in HMS174(DE3), lysed with 1% NP-40; lysates mixed with glutathione beads; blot for the tags.

The target of test [3] is T2, GST-RAP1 (human). As to the kind of experiment: pull-down; Fig. 2c, samples with three proteins: the co-expressed GST- and His6-tagged pair (HMS174(DE3)) on glutathione beads in the presence of a third protein that was expressed separately and added.
In test [4] the target is T2, GST-RAP1 (human). As to the kind of experiment: pull-down; Fig. 2a, one added protein: purified MBP-PS1(1–85) or His6-GFAP protein added to glutathione beads prebound with GST-RAP1 (from lysate); proteins from BL21 and BL21(DE3); blot for the tags; both purified.
For test [5], the target named is T2, GST-RAP1 (human). As to the kind of experiment: condition: only with MBP-PS1(1–85) in the same sample (Fig. 2a); pull-down; Fig. 2a, lanes 8 and 10: glutathione beads prebound with GST-RAP1 incubated with a purified His6-GFAP protein and purified MBP-PS1(1–85) together; both purified.
Test [6] deals with T2, GST-RAP1 (human). As to the kind of experiment: pull-down; Fig. 2a, lanes 8 and 10: glutathione beads prebound with GST-RAP1 incubated with a purified His6-GFAP protein and purified MBP-PS1(1–85) together; both purified.
Test [7] addresses GST-GFAPɛ (human) (UniProt P14136). As to the kind of experiment: pull-down; Fig. 2c lane 8: MBP-PS1(1–85) expressed separately in HMS174(DE3), added to GST-GFAPɛ on glutathione beads.
For test [8], the target named is GAL4DBD-GFAPɛ CT fusion (GFAPɛ 204–431) (human) (UniProt P14136). As to the kind of experiment: two-hybrid; Matchmaker Gold, Y2H Gold cells; GAL4DBD-GFAP fusions with GAL4AD-RAP1; growth on SC-leu-trp-his-ade, 3 days at 30°C, three independent transformants.
Test [9] deals with GAL4DBD-GFAPα CT fusion (GFAPα 204–432) (human) (UniProt P14136). The description is as above.

In the case of “GFAPɛ fragment amino acids 204–431, Gal4p activation domain fusion from the human fetal brain cDNA library (from UniProt P14136-3 204-431) (domain or fragment)”, in [1], the binding result is “binds”.

Consider “His6-GFAPɛ (amino acids 204—end) (from UniProt P14136-3 204-431) (domain or fragment)”, for which the binding result in test [2] was “binds”; in test [3], “binds”; in [4] it was “binds”; in test [5], “no binding”.

For “His6-GFAPα (amino acids 204—end) (from UniProt P14136-1 204-432) (domain or fragment)”, the binding result in test [6], in [2] and in test [4] was “no binding” throughout.

In the case of “MBP-PS1(1–85) (from UniProt P49768 1-85) (domain or fragment)”, in test [7], the binding result is recorded as “binds”.

B1: GAL4AD-RAP1 fusion (protein, UniProt Q9NYB0 1-399)
chain: MAEAMDLGKDPNGPTHSSTLFVRDDGSSMSFYVRPSPAKRRLSTLILHGGGTVCRVQEPGAVLLAQPGEALAEASGDFISTQYILDCVERNERLELEAYRLGPASAADTGSEAKPGALAEGAAEPEPQRHAGRIAFTDADDVAILTYVKENARSPSSVTGNALWKAMEKSSLTQHSWQSLKDRYLKHLRGQEHKYLLGDAPVSPSSQKLKRKAEEDPEAADSGEPQNKRTPDLPEEEYVKEEIQENEEAVKKMLVEATREFEEVVVDESPPDFEIHITMCDDDPPTPEEDSETQPDEEEEEEEEKVSQPEVGAAIKIIRQLMEKFNLDLSTVTQAFLKNSGELEATSAFLASGQRADGYPIWSRQDDIDLQKDDEDTREALVKKFGAQNVARRIEFRKK
B1: the binding entry in test [8] is “binds”; in [9], “no binding”.
